# Test results taken from the supplement of paper PMC11417369.
# Some of the results follow.
# System: PF3D7_0420300 AP2 domain 1 (GST-tagged)
# Test: gcPBM binding intensity (ln(normalized median fluorescence intensity)); higher = stronger DNA binding
# Summary of the method: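 Using an Agilent 4 × 180k array, primer-extended double-stranded 36-bp intergenic genomic probes and negative controls were exposed for 1 h to GST-fused P. falciparum DNA-binding domains expressed in E. coli. Binding was carried out in 1× PBS with 1% milk, 0.2 mg/ml BSA, 0.5% salmon testes DNA and 0.03% Triton X-100, and protein was detected with Alexa488 anti-GST antibody and a 488 nm scan. Binding intensity is the highest Masliner-normalised natural-log median intensity across replicate spots of either probe orientation.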
row,Sequence,gcPBM binding intensity (ln)
1,TCTAGGAAAAATTATAGTACACAAAAATATATATAT [XGTACX_site4136],9.38
2,TATGACACTTTGAAGGGTACATGCAGAAAAAAAAAA [XGTACX_site569],9.09
3,TTATATGCACTTTTTGCACACGTATGAATAACAAAA [CACACA_site1811],9.17
4,ATATATACATATACTATATCTTTTATTTTTATTATT [GTGCAC_negctrl_site127],9.46
5,TATATATATTAAAAACGTACAAAATAAGAATTAATT [XGTACX_site5979],9.51
6,TATAAATAAATAAACACACACAAATAAAATAAAAAA [CACACA_site7623],10.1
7,TTTTTTTGCCATATTACACACACACCGGTAAACCCC [CACACA_site8475],10.2
8,TTTATTTATTTATTCTTATTTTTTTTTTTTTTTACT [CACACA_negctrl_site257],9.22
9,ACATATTAGGGTCATGAACACACAAAAAAAAAAAAA [CACACA_site8218],9.32
10,AATTCAGCTTTACAACGTACACAATCATATGTCTAT [XGTACX_site8113],9.28
11,TAATACATAAATGATTGTACATAAGAATTGAAACAT [XGTACX_site4583],9.41
12,ATGAAGATTTAAAAATGTACATATGATCTATGTCCT [XGTACX_site8409],9.09
13,GTGAAGGTTTATATGTGTACATATATGTATTATATA [XGTACX_site326],9.28
14,ATTTCATACAGACACACACACAAACAAACATATATA [CACACA_site979],10.1
15,ATTATATATACATATACACACATACGTACATACATA [CACACA_site9194],9.72
16,TTTTTTTTTTTTAATGCACACAGTGAACTTTTACTT [CACACA_site3567],9.3
17,TTTAATAAATTGTGTACACAAAACATATAAATTTCG [CACACA_site5644],9.17
18,GACATTTCTTGGGATACATGCATGTCCCAGAACAAA [TGCATGCA_site271],8.95
19,ATTATCAAGACATTGCGTACTTAAAAAAAAAAAAAT [XGTACX_site6347],9.1
20,TTATTATTCATATATTCACACATTAAAATTTTTCAA [CACACA_site4243],9.2
21,CATATATAATAATATTGTACATATATAATAATAATA [XGTACX_site3338],9.27
22,CATAAAAATGGATACACACACATAATATATATATAT [CACACA_site3619],9.95

row,Sequence,gcPBM binding intensity (ln)
1,AAAAAAATTAATGTGTGTACTTAGATATAATGTTTA [XGTACX_site8862],9.38
2,TAATTTTTTTTTTATTGTACTTAATATTTTTAATTT [XGTACX_site5929],9.26
3,TTACAAATATTATAAAGTACAAACCAGTAGATTTTG [XGTACX_site2272],9.12
4,TATTTTTTTTTTTTTTTTTTTACCTTTCCACTCAAA [CACACA_negctrl_site1454],9.04
5,TCATTCTAAATATAAACACACATAAATATGTACATT [CACACA_site7555],9.24
6,TTTTTTTTTTTTAAAAGTACATAGTAGTAATTATAG [XGTACX_site4232],8.72
7,AAGATCATATATTCGTGGGTATAAAAAGTTATAATA [TGCATGCA_negctrl_site439],9.09
8,AGAAATATGTTGAAGCATTTATAATGTAGATATAAG [GTGCAC_negctrl_site640],9.24
9,AAAAAAAAAAAAAATACACACAAACACAAATTAAAT [CACACA_site5982],10
10,GTAATATTATAATATACACACATAGAATATATATAT [CACACA_site413],9.64
11,TAATTTACACCTACGTGTACACACAAAAATATGTTT [XGTACX_site1868],9.59
12,TTTATTATCAAGATTGCACACCCTTATGAACTTTTT [CACACA_site3166],9.33
13,ACAAAAAAAAAGGAAACACACAAAAAAAAAAAATAA [CACACA_site3523],9.75
14,ACTATATTTCTATAATGTACAAAAATAAATCATATG [XGTACX_site3337],9.19
15,ACCTATAAAAAATAATGTACAGGAAGAAATATAAGG [XGTACX_site5822],9.63
16,TATATATATATATATGTATGCATGTCCTTTTTTATT [TGCATGCA_site344],9.35
17,ATTTTTTTTAAACGAAGTACAATTTGTGCATTGGAA [XGTACX_site8109],9.01
18,TTTTTTTTTTTTGTAGTGCAAATTAAAAATATATGT,8.98
19,AATATATGGTTTCATGATATAAAATTCAATTTAATG [GTGCAC_negctrl_site610],9.06
20,TGTTTATCATATTTGTGTCCTCATTTTTTAGTATCA [XGTACX_site947],9.45
21,TTATTTCTTCAGAAAAAATTAAAAAATTAAACAATA [CACACA_negctrl_site169],8.9
22,ATTTTTTTTTTTTTTTTTTTTTTTTTTTTTTTATGC [CACACA_negctrl_site1018],8.86

row,Sequence,gcPBM binding intensity (ln)
1,AAAAAAAAAAAAAACACACACATATAACATATTTAA [CACACA_site6745],9.67
2,TGTTTACACTTTTTTTGTACACATAATTTTATTTGA [XGTACX_site3760],9.22
3,TATTCTAGTCTGCTTACACACATATTTATATTTATA [CACACA_site7432],9.8
4,TAATATTTTATTTTTGTTGTGGATCCAAAAAAAAAA [CACACA_negctrl_site846],8.76
5,CTATATATTTAAAAAAGTACAAATATAAAAATATAT [XGTACX_site676],9.25
6,TTTTGTTCATACAAATTGGAACAAGACAAAAATATA [XGTACX_negctrl_site327],8.97
7,TACATAATTTTAATCACACACAAACAAACACATACA [CACACA_site194],9.9
8,GTAAGTATATATAATAGTACATATATATTAATATAT [XGTACX_site4314],9.36
9,TTTTTTTTTTTTGTAACATGCAAACAACAATATGGG [TGCATGCA_site695],8.99
10,GGGAGGATATTACACAGTACCCAGGAAATCTACGGA [XGTACX_site4874],9.2
11,TATGTTCCGAAGGTTGTACACACATAGAAATATACA [CACACA_site9285],9.5
12,ATGTAATTGTATACATGTACGCAAACACAAAAGCAT [XGTACX_site6771],9.53
13,AAGGAAAAAACAAATACACACAAAAACGCATTATAA [CACACA_site3466],10
14,ATGAACTTATTTTAGTGTACTAAAAAATATGACTTC [XGTACX_site470],8.94
15,TAGGTCATATTTTTTGCACACAAAAAAAAATATAAA [CACACA_site3380],9.04
16,TTTTTCCAATCAGATGCATGTTACTATATTTGGTTC [TGCATGCA_site52],9.2
17,CACCTCAATATTCACATACACACAATATCATCGAAG [CACACA_site1675],9.53
18,TGTATAAGGTTTTTACGTTTTGAAGGATGTATTGTT [CACACA_negctrl_site1245],9.43
19,TATCATTTTGAAGTATGTACTTATTTTATTAAAATA [XGTACX_site7784],9.01
20,ATTATATTAAAATATTCACACACTAACGTAAATCAT [CACACA_site8887],9.4
21,TAAATACATAAATACACACACATATATATATATATA [CACACA_site5549],9.68
22,ATATTTTGGGTGTTGTTTTTTTTTAAAACTCTTTAA [CACACA_negctrl_site1255],9.39

row,Sequence,gcPBM binding intensity (ln)
1,TTACTATTTCACTGTGCATGCAACAAAAATCTATCT [TGCATGCA_site808],9.23
2,ATTAGTTTATATGAATGATTTTTCTTTTTTTTTTTT [CACACA_negctrl_site88],9.19
3,CGTAGCCGCACTAACACACACAAATATACGCAATCA [CACACA_site2898],9.67
4,AAAAAAAAAAAAAATAATAAATAAATAAATAAATAA [GTGCAC_negctrl_site505],8.99
5,AAAAATAAAAAAAAATTAAAATATATATATTTTGTT [TGCATGCA_negctrl_site102],9.13
6,AGGAAAAAAAGTAGCACACAAATATTTATAATATAT [CACACA_site2437],9.65
7,GAGAGGATACATACATGTACATAAATATTTTATTTT [XGTACX_site5129],9.24
8,CATATAATAAATAATACACACATATTGGAAATATAT [CACACA_site3212],9.73
9,TTTATTTATTTATATTTTTTTATATAATTTATATAT [GTGCAC_negctrl_site301],9.23
10,AAAGGTATATATGTGTGTACATATATATATATATAT [XGTACX_site5629],9.36
11,CACATTTCTGTAGTTGCATGTAGAAAAAAAAAAAAA [TGCATGCA_site810],8.84
12,TTTTGAGAAAAAATAAAATAATAAATAAAAATACAT [XGTACX_negctrl_site66],9.28
13,AATACAATTGAAAATTGTACTTTGTTTTTTATAAAT [XGTACX_site4080],9.1
14,TTTGATTTTAATGTGTGTACACATTTATTTATATAA [XGTACX_site4806],9.49
15,GATTTATATTTTAAAAGTACAAGTTAAAATAAAAGT [XGTACX_site7059],9.33
16,ATATAAGTATAATTATGTACTTATACTTATATAAAT [XGTACX_site5585],9.04
17,AATATAAGATTATTATGTACATAATAAATATGTATT [XGTACX_site4773],9.29
18,ATATAATATCTGTATACACACATATTATATAATATT [CACACA_site5940],9.56
19,CATATTAATACAGAATGTACGGATAACAAACTGTTT [XGTACX_site7935],9.09
20,TTTTTTTTTTTGGTTACACACATTTGTATATTCTCA [CACACA_site134],9.67
21,GGTCATCATCGGTATTGTACAAAAATGTGAAAATTA [XGTACX_site639],9.17
22,ATAATTATATGATGAGTGCACAATAAAAATATCGTT [GTGCAC_site9920],9.41
